From PMC4336329 (PLoS ONE, 2015)
The whole screen tested about 310,000 compounds, of which about 14,000 (4.5%) showed an effect of 50% or more. The effect is printed as a negative number. The list shows a part of the results.

What follows are molecules tested against human ether-à-go-go-related gene (hERG) potassium channel (human, UniProt Q12809) (assay: primary screen, population patch clamp on CHO cells stably expressing hERG).
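Also: peak tail current of the secondary pulse compared with the same well before compound.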

Chain of human ether-à-go-go-related gene (hERG) potassium channel (Q12809 whole entry, looked up): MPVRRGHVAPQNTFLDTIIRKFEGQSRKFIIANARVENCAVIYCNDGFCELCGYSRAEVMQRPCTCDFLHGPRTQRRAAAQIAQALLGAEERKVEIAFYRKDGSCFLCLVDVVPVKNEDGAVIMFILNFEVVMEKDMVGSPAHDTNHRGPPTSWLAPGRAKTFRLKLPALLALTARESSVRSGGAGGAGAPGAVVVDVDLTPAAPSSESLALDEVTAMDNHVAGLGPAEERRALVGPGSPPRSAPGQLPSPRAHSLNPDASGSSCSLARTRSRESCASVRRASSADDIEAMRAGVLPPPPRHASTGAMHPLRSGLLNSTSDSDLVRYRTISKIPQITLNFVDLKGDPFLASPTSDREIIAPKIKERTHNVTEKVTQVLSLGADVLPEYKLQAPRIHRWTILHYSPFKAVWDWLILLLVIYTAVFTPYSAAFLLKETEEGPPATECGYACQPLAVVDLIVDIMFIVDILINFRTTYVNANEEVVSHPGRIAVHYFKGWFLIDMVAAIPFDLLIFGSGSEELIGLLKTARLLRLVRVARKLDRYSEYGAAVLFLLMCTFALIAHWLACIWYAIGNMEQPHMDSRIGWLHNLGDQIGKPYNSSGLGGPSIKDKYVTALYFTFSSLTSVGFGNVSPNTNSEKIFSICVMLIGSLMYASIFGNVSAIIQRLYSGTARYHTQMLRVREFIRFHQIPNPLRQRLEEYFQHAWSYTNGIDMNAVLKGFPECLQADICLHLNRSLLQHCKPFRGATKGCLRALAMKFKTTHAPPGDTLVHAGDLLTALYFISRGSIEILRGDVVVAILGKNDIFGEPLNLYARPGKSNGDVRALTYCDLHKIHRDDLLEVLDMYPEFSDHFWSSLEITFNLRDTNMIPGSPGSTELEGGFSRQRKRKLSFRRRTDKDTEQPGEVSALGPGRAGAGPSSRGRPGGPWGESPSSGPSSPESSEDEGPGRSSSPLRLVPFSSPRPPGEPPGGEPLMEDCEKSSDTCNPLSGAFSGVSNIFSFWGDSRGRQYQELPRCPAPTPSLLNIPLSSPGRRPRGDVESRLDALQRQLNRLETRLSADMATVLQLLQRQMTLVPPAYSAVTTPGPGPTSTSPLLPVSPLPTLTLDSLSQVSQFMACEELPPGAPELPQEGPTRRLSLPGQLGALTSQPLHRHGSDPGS

Compound | hERG current change (%, negative = inhibition) at 10uM
O=C(Cc1ccccc1)NCc1n[nH]c(=S)n1-c1ccccc1 | 21.2%
COc1ccc(/C=N/NC(=O)CN2CCCc3ccccc32)c(OC)c1 | 2.09%
COc1cc(NC2c3ccccc3C(=O)N2Cc2ccccc2Cl)cc(OC)c1 (stereo not drawn) | -22.2%
CCCn1c(C(=O)c2ccc(OC)cc2)nc2ccccc21 | 5.03%
COc1ccc(/C=C/C(=O)NC2CCN(Cc3ccccc3)CC2)cc1OC | -29%
CCOC(=O)C(CC)n1cnc2c(nnn2-c2cccc(OC)c2)c1=O (stereo not drawn) | 12.9%
Cc1nn(C)c(C(=O)N2CCc3ccccc32)c1Br | -3.6%
COc1ccc(/C=N/NC(=O)c2ccco2)cc1COc1ccc(F)cc1 | 10.5%
CCn1c(C)c(C(C)=O)c(SC)nc1=S | -4.98%
CCc1cccc(OCC(O)Cn2c(N3CCCCC3)nc3c2c(=O)[nH]c(=O)n3C)c1 (stereo not drawn) | 13.7%
CCCc1cc(=O)[nH]c(SCC(=O)N(CC(C)C)C2CCS(=O)(=O)C2)n1 (stereo not drawn) | 3.01%
CCOc1ccc2ccccc2c1/C=N/NC(=O)CNC(=O)C(c1ccccc1)c1ccccc1 | 15.3%
CC1CCN(S(=O)(=O)c2ccc3c4c2CC(=O)N4CC(C)S3)CC1 (stereo not drawn) | 7.22%
COc1ccc(C2C(C(N)=O)=C(C)Nc3nc(-c4ccccc4Cl)nn32)c(OC)c1 (stereo not drawn) | -12.9%
Cc1c(C#N)c2ccccc2n1CC(=O)O | 5.22%
Cc1ccc(C(=O)NCCC2=CCCCC2)cc1S(=O)(=O)N1CCCCC1 | -31.8%
CC(NC(=O)c1ccc2c(c1)C(=O)N(Cc1cccnc1)C2=O)c1ccccc1 (stereo not drawn) | 5.7%
CC(C)c1nnc(NC(=O)CCC(=O)NC2CCCCCCC2)s1 | -7.17%
CN(C)c1ccc(NC(=O)c2ccc([N+](=O)[O-])cc2Cl)cc1 | -19.9%

Compound | hERG current change (%, negative = inhibition) at 10uM
CCCc1cc(=O)[nH]c2nnc(SCC(=O)N3CC(C)OC(C)C3)n12 (stereo not drawn) | 19%
CCN(CC)CCCNC(=O)Cn1ncn2cccc2c1=O | 21%
COc1ccccc1Nc1ccc(C(=O)NCc2cccs2)cn1 | -2.73%
CC(C)(C)/C(O)=C/c1nc2ccccc2oc1=O | 13.6%
C=CCCC(=O)N1CCCC(C(=O)c2cccc(OC)c2)C1 (stereo not drawn) | -12.5%
CCc1ccc(NC(=O)c2noc3c2CCC3)cc1 | 1.3%
O=C(COC(=O)C1CCN(c2ccc(C(F)(F)F)cn2)CC1)NC1CCCCC1 | -6.51%
O=C(Nc1cscc1S(=O)(=O)c1ccc(Cl)cc1)c1ccccc1Cl | -0.486%
COc1ccccc1N1CCN(C(c2ccc(N(C)C)cc2)c2nnnn2CCc2ccccc2)CC1 (stereo not drawn) | 7.71%
C=CCn1c(-c2ccoc2)n[nH]c1=S | 18.5%
COc1ccc2cc(C(=O)O)n(CC(=O)c3ccccc3)c2c1 | 16.9%
Cn1nnnc1SCC(=O)N1CCCc2ccccc21 | 7.41%
O=C(Cn1c(=S)[nH]c2ccccc21)c1ccccc1 | 14.4%
CCCCC(CCC(=O)O)(C(=O)OCC)c1csc(Nc2ccccc2)n1 (stereo not drawn) | 5.77%
Cc1nc(C(=O)N(C)C)nn1-c1cc(Cl)ccc1Cl | 12.8%
CCOC(=O)c1[nH]c2ccc(OC)cc2c1NC(=O)c1ccccc1C(=O)O | 14.2%
Cc1cccc(C(=O)OCC(=O)NCCCc2ccccc2)c1 | 14.3%
COCC(=O)Nc1ccc2nc3n(c(=O)c2c1)CCCCC3 | -2.98%
CC(C)(C)c1cc(C(=O)NCC(=O)OCC(=O)c2cccc([N+](=O)[O-])c2)cc(C(C)(C)C)c1 | 2.91%

Compound | hERG current change (%, negative = inhibition) at 10uM
O=C(Nc1cc(Cl)ccn1)C1(c2ccccc2)CC1(Cl)Cl (stereo not drawn) | 12.7%
CC1(C)CC(O)C(C(O)c2cccc([N+](=O)[O-])c2)C(C)(C)N1 (stereo not drawn) | 30.1%
Clc1cccc(Cl)c1OCCCCN1CCCCC1.O=C(O)C(=O)O | -40.8%
O=C(COC(=O)C1CC1)Nc1ccc(Oc2ccccc2)cc1 | -29%
CNC(=O)c1cccc2cccc(Sc3ccccc3C(=O)O)c12 | 13.7%
Cc1ccccc1NC(=O)C1C2C=CC(C3CC23)C1C(=O)O (stereo not drawn) | 19.2%
COc1ccc(-c2c(-c3cc(OC)cc(OC)c3)n(C)c3ccc(-c4ccn[nH]4)cc23)cc1 | -0.287%
COc1ccc(NC(=O)c2nc[nH]c2C(=O)NCCCCCNC(=O)OC(C)(C)C)cc1 | 27.3%
O=C(c1cccc(N2C(=O)C3C4C=CC(C4)C3C2=O)c1)N1CCN(c2ccccc2Cl)CC1 (stereo not drawn) | -13.8%
CC1=C(C#N)CCC(=O)N1Cc1c(C)cc(C)cc1C | 7.22%
Cc1ccc(C(C)n2cc(C(=O)NCc3cccnc3)nn2)cc1 (stereo not drawn) | -6.78%
CC(C)n1c(/C=C/c2ccccc2)nc2ccccc21 | -7.87%
CC(=O)c1c(C)n(-c2ccccc2Br)c2ccc(O)cc12 | 19.4%
CC(=O)Oc1ccc(C(=O)OCC(=O)c2c(N)n(C)c(=O)n(C)c2=O)cc1OC(C)=O | 45%
c1ccc(-c2ccc3c(c2)NC(C2Nc4cc(-c5ccccc5)ccc4O2)O3)cc1 (stereo not drawn) | 7.08%
O=C(/C=C/c1ccco1)c1ccc(O)cc1 | -12.1%
CCOC(=O)CCc1c(C)nc2cc(C3CCCN(C(=O)OC(C)(C)C)C3)[nH]n2c1=O (stereo not drawn) | -7.68%
O=C(/C=C/c1ccc(F)cc1)Nc1cc(S(=O)(=O)N2CCOCC2)ccc1N1CCCC1 | -70.9%
O=C(Nc1ccc(Oc2ccccc2)nc1)C1CCN(Cc2ccccc2)CC1 | -54.9%
